How the values were obtained:
[1] = Terminal half life in cynomolgus monkeys; format: in vivo; details: cynomolgus monkey plasma, n = 3
Procedure: Single intravenous (bolus) antibody administrations of 1 and 10 mg/kg (in a formulation containing 25 mM Na citrate pH 6, 115 mM NaCl, 0.02% Polysorbate 20 (Tween)) are given to cynomolgus monkeys (n=3 for each administrated dose). 0.5, 2, 8, 24, 48, 72, 168, 336 and 504 hours after each application a blood sample is taken and the human antibody concentration in the plasma determined by ELISA.

[2] = molecular target: T1, rat IGF-2 (Rattus norvegicus, UniProt P01346); experiment: Surface plasmon resonance (Biacore), antibody capture method; format: binding
T1 construct: insulin-like growth factor-2 (IGF-2; a 67 amino-acid polypeptide)
T1 sequence (P01346 25-91 limits assumed): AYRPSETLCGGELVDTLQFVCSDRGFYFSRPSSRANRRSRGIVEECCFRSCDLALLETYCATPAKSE
Procedure: (§1) a) Antibody Capture Method
(§2) The sensor chip is coated with approximately 1000 RU of the reference antibody in flow cell 1 and approximately 1000 RU of a rabbit-anti-human Fc-gamma-specific antibody in flow cell 2 using the coupling reagents from an amine coupling kit. A target of 1000 RU is set in the surface preparation wizard of the Biacore 3000 software at a flow rate of 5 μl/min. Running buffer used is HBS-EP. The affinity measurements are made using the following parameters: 20 μl/min flow (HCB running buffer:); 25° C. detection temperature; Fc1, Fc2 flow paths; Fc1, Fc2 detection; anti-IGF-huMAb-capturing: 3 min of a 1 μg/ml solution; 5 min IGF-Ag-association; 5 min IGF-Ag-dissociation; regeneration: 30 sec pulse with 50 mM HCl. The IGF antigens are diluted to 500, 250, 125, 62.5 and 31.3 nM in running buffer (HCB) and the different antigen dilutions are run singly over Fc1 and Fc2 with random order. Blank runs using running buffer only are run in-between. A blank run curve is subtracted from each binding curve before affinity analysis. Data evaluation is performed using the BIAevaluation software (version 4.1, Biacore, Freiburg, Germany). The dissociation and association phases of the kinetics are fitted separately. For the separate fit of the kdiss values a time-frame of the initial 200-300 seconds in the dissociation phase is used (range of steady decrease of signal). For the separate fit of the kass values, initial time frames of approx 100 seconds are used (range of steady increase of signal) and for calculation the individual kdiss values are used with the 1:1 Langmuir association model. The average values with the standard deviations of the kinetic data together with the corresponding dissociation (KD) and association (KA) constants are calculated.
(§3) Surface plasmon resonance is performed using a Biacore instrument to determine the affinity constants for binding of the IGF antibodies to human, rat and mouse IGF-1 and IGF-2.
(§4) The analysis is initially performed by capturing the IGF antibodies on the sensor chip and injecting a range of antigen concentrations, thereby eliminating the possibility of an avidity effect.

[3] = molecular target: T2, rat IGF-1 (Rattus norvegicus, UniProt P08025); experiment: as above; format: binding
T2 construct: Insulin-like growth factor-1 (IGF-1; a 70 amino-acid polypeptide)
T2 sequence (P08025 49-118 limits assumed): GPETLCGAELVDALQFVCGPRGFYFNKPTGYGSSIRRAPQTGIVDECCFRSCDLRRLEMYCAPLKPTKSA
Procedure: as §1, §2, §3, §4

[4] = molecular target: T3, human IGF-1 (Homo sapiens, UniProt P05019); experiment: as above; format: binding
T3 construct: Insulin-like growth factor-1 (IGF-1; a 70 amino-acid polypeptide)
Procedure: as §1, §2, §3, §4

[5] = molecular target: T4, mouse IGF-2 (Mus musculus, UniProt P09535); experiment: as above; format: binding
T4 construct: insulin-like growth factor-2 (IGF-2; a 67 amino-acid polypeptide)
Procedure: as §1, §2, §3, §4

[6] = molecular target: T5, human IGF-2 (Homo sapiens, UniProt P01344); experiment: as above; format: binding
T5 construct: insulin-like growth factor-2 (IGF-2; a 67 amino-acid polypeptide)
Procedure: as §1, §2, §3, §4

[7] = molecular target: T6, mouse IGF-1 (Mus musculus, UniProt P05017); experiment: as above; format: binding
T6 construct: Insulin-like growth factor-1 (IGF-1; a 70 amino-acid polypeptide)
Procedure: as §1, §2, §3, §4

[8] = tested on: IGF-2 induced phosphorylation of ribosomal S6 protein in COLO 205 cells; experiment: Western blot analysis of phosphorylated ribosomal S6; format: cell-based, human; details: 10 ng/ml IGF-2, 30 μg/ml antibody, four hours, FIG. 4
Procedure: (§5) COLO 205 cells are plated in 6-well plates in medium containing 10% serum and after two days they are harvested and re-plated in serum-free medium. The cells are then incubated with 10 ng/ml IGF-1 or IGF-2 with or without 30 μg/ml GF antibody for four hours before being lysed and the cell lysate frozen after the protein concentration had been determined using a Bradford assay. Western blotting is performed by applying 13 μg of protein lysates to an SDS PAGE gel (BioRad) and the gel blotted on a Citerian gel blotting sandwich. Western blots are incubated overnight with both a rabbit anti-β actin (control) antibody and a rabbit anti-phospho-S6 ribosomal protein (Ser235/236) antibody (Cell Signaling) at 1:1000 dilutions in 1% milk powder. Following washing in TBS an anti-rabbit IgG HRPO-conjugated secondary antibody (Amersham) is applied for 1 hour and after further washes in TBS antibody reactivity is detected by ECL and captured on Hyperfilm (Amersham).

[9] = tested on: IGF-1 induced phosphorylation of ribosomal S6 protein in COLO 205 cells; experiment: as above; format: cell-based, human; details: 10 ng/ml IGF-1, 30 μg/ml antibody, four hours, FIG. 4
Procedure: as §5

[10] = molecular target: T3, human IGF-1; experiment: Surface plasmon resonance (Biacore), IGF coating method; format: binding
Procedure: (§6) The determination of binding constants of IGF antibodies to IGF ligands when the sensor chip is coated with IGF ligands is essentially performed as described above except that the sensor chip is coated with 35.1 pg/mm^2 and 38.5 pg/mm^2 IGF-1 and IGF-2 respectively. The antibodies are then flowed over the chip at the following concentrations: 50, 25, 12.5, 6.25, 3.12 nM.
(§7) Affinity constants are also determined for binding of the IGF antibodies to human IGF-1 and IGF-2 using a method where the IGF ligands are coated to the Biacore sensor chip and a range of antibody concentrations injected. The approximately 30-50-fold increase in the binding constants using this method compared with the initial antibody capture method is likely due to an avidity effect where both antibody binding domains interact with an IGF molecule.

[11] = molecular target: T5, human IGF-2; experiment: as above; format: binding
Procedure: as §6, §7

[12] = human IGF-1, IGF coating method

B1: antibody 40186: fully human IgG1/Igλ antibody binding IGF-1 and IGF-2; heavy chain SEQ ID NO:25, light chain SEQ ID NO:26 (antibody, listed as Homo sapiens)
heavy: QVELVESGGGLVQPGGSLRLSCAASGFTFSNYWMHWVRQAPGKGLEWVSGISGWSSWTYYADSVKGRFTISRDNSKNTLYLQMNSLRAEDTAVYYCARFGIDAYTKVYFDYWGQGTLVTVSS[in this place human IgG1 constant region]
light: DIELTQPPSVSVAPGQTARISCSGDNIPLKYVSWYQQKPGQAPVLVIHDDNKRPSGIPERFSGSNSGNTATLTISGTQAEDEADYYCQSWASTGVVFGGGTKLTVLGQPKAAPSVTLFPPSSEELQANKATLVCLISDFYPGAVTVAWKGDSSPVKAGVETTTPSKQSNNKYAASSYLSLTPEQWKSHRSYSCQVTHEGSTVEKTVAPTECS
Terminal Half Life ([1]; 1 mg/kg single intravenous (bolus)): 10.7 ± 1.6 days | Terminal Half Life ([1]; 10 mg/kg single intravenous (bolus)): 12 ± 1.4 days | KA [2]: 1.67e+08 M⁻¹ | kass [2]: 602000 M⁻¹ s⁻¹ | kdiss [2]: 0.00351 s⁻¹ | KA [3]: 3.67e+08 M⁻¹ | kass [3]: 1.1e+06 M⁻¹ s⁻¹ | kdiss [3]: 0.00301 s⁻¹ | KA [4]: 2.16e+08 M⁻¹ | kass [4]: 581000 M⁻¹ s⁻¹ | kdiss [4]: 0.0027 s⁻¹ | KA [5]: 1.08e+08 M⁻¹ | kass [5]: 632000 M⁻¹ s⁻¹ | kdiss [5]: 0.00586 s⁻¹ | KA [6]: 2.86e+08 M⁻¹ | kass [6]: 1.03e+06 M⁻¹ s⁻¹ | kdiss [6]: 0.00362 s⁻¹ | KA [7]: 1.44e+08 M⁻¹ | kass [7]: 466000 M⁻¹ s⁻¹ | kdiss [7]: 0.00329 s⁻¹ | effect on IGF-2 induced ribosomal S6 phosphorylation [8]: completely neutralizes | effect on IGF-1 induced ribosomal S6 phosphorylation [9]: completely neutralizes | KA [10, 12]: 1.22e+10 M⁻¹ | kass [10, 12]: 2.1e+06 M⁻¹ s⁻¹ | kdiss [10, 12]: 0.00023 s⁻¹ | increase in the binding constants, IGF coating method compared with antibody capture method ([10]; human IGF-1 and IGF-2, likely due to an avidity effect): 30-50 fold | KA [11]: 1.45e+10 M⁻¹ | kass [11]: 2.26e+06 M⁻¹ s⁻¹ | kdiss [11]: 0.000164 s⁻¹

From patent publication US8580254B2, “Anti-IGF antibodies” (Boehringer Ingelheim International GmbH, priority 2007, dated 2013)
